Laboratory results reported in the RNAGym collection of RNA variant scans (doi:10.7554/elife.90254).
The source gives no read counts; variants with many changes may rest on few reads.

B1: LINE1-mini (parent)
chain: GGCAGAGCUCAACACAGCGUGGCAAAGUGGCUGUGGCUAGACUGCC

Variants of: B1
Test: self-cleavage, relative activity (ratio to wild type); higher = more cleavage; in vitro, sequencing; the parent is a self-cleaving ribozyme

Question: Which self-cleavage does the source give for GGCAGAGCUUUACACAGCGGGGCAAAGUGGUUGUGCCUAGACUGCC [C10U A11U U20G C31U G36C] here?
Answer: Its self-cleavage is 0.01.

Question: Which self-cleavage does the source give for GGCAGAGCUCAACACAGCGUGGCAAACUCGCUGUGGCUAGACCGCC [G27C G29C U43C] here?
Answer: Its self-cleavage is 0.02.

Question: Which self-cleavage does the source give for GGCGGAGCUCAACACAGCGUGGCAAAGAGGGUGUGGCUAGACUGCC [A4G U28A C31G] here?
Answer: The self-cleavage was 0.09.

Question: For GGCAGAGCUCAACACAUCGUGGCAUAGUGGCUCUGGCUAGACUGCC [G17U A25U G33C], which self-cleavage is on record?
Answer: Its self-cleavage is 0.02.

Question: Which self-cleavage does the source give for GGCAGAGCUCAACACAGCUUGGUAAAGUGGAUGUGGCUAGACUGCC [G19U C23U C31A] here?
Answer: The self-cleavage was 0.87.

Question: For GGCAGAGCUUAACACAGAGUGGUAAAGUGGCUGUGGCUAGACUGCC [C10U C18A C23U], which self-cleavage is on record?
Answer: The self-cleavage was 0.38.

Question: Which self-cleavage does the source give for GGCAGUGCUCAACACAGAGUGGCAAAGUGGCCCUGGCUAGACUGGC [A6U C18A U32C G33C C45G] here?
Answer: Its self-cleavage is 0.

Question: With GGCAGAGCUCGACAUAGCGUGGCAAAGUCGCCGUGGCUAGACUGCC [A11G C15U G29C U32C] as the variant, how does the self-cleavage read?
Answer: The self-cleavage was 0.08.

Question: Which self-cleavage does the source give for GGCAGAGGUCAACACAGGGUGGCAAAGUGGCUGUGGCUAAACCGCC [C8G C18G G40A U43C] here?
Answer: The self-cleavage was 0.01.

Question: For GGCAGAGCUAAAGACAACGUGGCAAAGUGGCUGUGGCUAGACUGCC [C10A C13G G17A], which self-cleavage is on record?
Answer: Its self-cleavage is 0.04.

Question: With GGCAGAGCUCAACACAGCGUGGAAAAGUGUCUGUGCCUAGACUGCC [C23A G30U G36C] as the variant, how does the self-cleavage read?
Answer: The self-cleavage was 0.4.

Question: For GCCCGAGACCAACACAGCGUGGUAAAGUAGCUGUGGCGAAAAUGCC [G2C A4C C8A U9C C23U G29A U38G G40A C42A], which self-cleavage is on record?
Answer: The self-cleavage was 0.02.

Question: Which self-cleavage does the source give for GACAGAGCUCAACACAGCGUGGCAAAGUGGCAGUGGUUAGACUGCC [G2A U32A C37U] here?
Answer: The self-cleavage was 0.1.

Question: For GGCAUAGCUCAACACAGCGUGGCACAGUGGCUGUGGCUAGACUACC [G5U A25C G44A], which self-cleavage is on record?
Answer: The self-cleavage was 0.09.

Question: With CGCAGAGCUCAACACAGGGUGGCAAAGUGGAUGUGGCUAAACUGCC [G1C C18G C31A G40A] as the variant, how does the self-cleavage read?
Answer: The self-cleavage was 0.

Question: For GGCAGAGCUCAACGCAGCGUGGCAAAGUAGCUGUGGCUAGACUGCU [A14G G29A C46U], which self-cleavage is on record?
Answer: Its self-cleavage is 0.4.

Question: Which self-cleavage does the source give for GGCAGAGCUCAACACAGCGUUUCAAAGUGGCUGUGGCUAGACCGCC [G21U G22U U43C] here?
Answer: Its self-cleavage is 1.96.

Question: For GGCACAGCAGAACACAGCGUGGAAAAGUGGCUGUGGCUAGACUGCC [G5C U9A C10G C23A], which self-cleavage is on record?
Answer: The self-cleavage was 0.02.

Question: With GUCAGAGCUCAGCACAGCGAGGCAAAGCGGCUGUGGCUAGACUGCC [G2U A12G U20A U28C] as the variant, how does the self-cleavage read?
Answer: The self-cleavage was 0.01.

Question: For GGCAGAGCUCACCACAGCGAGGCAAAGCCGCUGUGGCUAGACUGCC [A12C U20A U28C G29C], which self-cleavage is on record?
Answer: Its self-cleavage is 0.

Question: Which self-cleavage does the source give for GGCAGAGCUCAACACAGCGUGGCAAAGUGGCGGUGGCGAGACUGAC [U32G U38G C45A] here?
Answer: Its self-cleavage is 0.02.

Question: With GGCGGAGCUCAACACAGAGUGGCAAAGUGGCUGGGGUUAGACUGCC [A4G C18A U34G C37U] as the variant, how does the self-cleavage read?
Answer: Its self-cleavage is 0.09.

Question: Which self-cleavage does the source give for GGCAGAGAUCAACAAAGCGUGGCAAAGUUGCUGUGGCCAGACGGCC [C8A C15A G29U U38C U43G] here?
Answer: The self-cleavage was 0.

Question: For GGCAGGGCUCAACACAGCGUGGCAAGGUGGCUGUGGCUAGAAUGCC [A6G A26G C42A], which self-cleavage is on record?
Answer: Its self-cleavage is 0.05.

Question: Which self-cleavage does the source give for GGCGGAGCUGAACACAGCGUGGCAAAGUGGCUGUGGUUAGACUGUC [A4G C10G C37U C45U] here?
Answer: Its self-cleavage is 0.01.

Question: Which self-cleavage does the source give for GGCAGAGCUCAACACAGCGUGGCGAACCGGCUGUGGCUAGACUGCC [A24G G27C U28C] here?
Answer: Its self-cleavage is 0.13.

Question: Which self-cleavage does the source give for GGUACAGCUCAACACAGCGUGGCAAAGUGGCUAUGGCUAGACUGCC [C3U G5C G33A] here?
Answer: Its self-cleavage is 0.07.

Question: For GGCAGAGCACAAUACAGCGUGGCAAAGUGGCUGUGGCAAGACUGCC [U9A C13U U38A], which self-cleavage is on record?
Answer: Its self-cleavage is 0.24.

Question: With GGAAGAGCUCAACACAGUGUGGCAAAGUGGCUGUGUCUAGACUGCC [C3A C18U G36U] as the variant, how does the self-cleavage read?
Answer: The self-cleavage was 1.45.

Question: With GGCAGAGCUCCACACAGCGUGGCAAAGUGGCUGAGGCUAGACUGUC [A11C U34A C45U] as the variant, how does the self-cleavage read?
Answer: Its self-cleavage is 0.01.

Question: Which self-cleavage does the source give for GGCAGAGCUCAACACAGCUUAGCAAAGUGGUUGUGGAUAGACUGCC [G19U G21A C31U C37A] here?
Answer: The self-cleavage was 0.09.

Question: With GGCCGAGCUCAACACAGCGUGGCGAAGUGGCUGUGGGUAGACUGCC [A4C A24G C37G] as the variant, how does the self-cleavage read?
Answer: Its self-cleavage is 0.38.

Question: For GGCAGAGCUCAACAUAGCGUGGCAAAGUAGCUGUGGCUGGACUGCC [C15U G29A A39G], which self-cleavage is on record?
Answer: Its self-cleavage is 0.08.

Question: Which self-cleavage does the source give for UGCAGAGCUCAACACAGCGUGGCAAAGUGGCUGUCACUAGACUGCC [G1U G35C G36A] here?
Answer: Its self-cleavage is 0.05.

Question: For GGCAGAGCUCCACACAGCGGGGCAAAGUGGCUGUGCCUAGACUGCC [A11C U20G G36C], which self-cleavage is on record?
Answer: The self-cleavage was 0.

Question: Which self-cleavage does the source give for GGCAGUGCUCAUCACAGCGUCGCAAAGUGGCUGAGGCUAGACUGCC [A6U A12U G21C U34A] here?
Answer: The self-cleavage was 0.05.

Question: For GGCAGAGCACAACACAGCGUUGCAAAGUGGCUGUGGCAAGACUGAC [U9A G21U U38A C45A], which self-cleavage is on record?
Answer: The self-cleavage was 0.11.

Question: Which self-cleavage does the source give for GCCAGAGCUAAACACAGUAUGGCAAAGUGGCUGUUGCUAGACUGCC [G2C C10A C18U G19A G35U] here?
Answer: The self-cleavage was 0.03.

Question: For GGCAGAGCUCAAUACAGCGUUGCAAAGUGGCUGUGGCUAGACCGCC [C13U G21U U43C], which self-cleavage is on record?
Answer: Its self-cleavage is 0.11.

Question: For GGCAGAGCUCAACACAACGUCGCAAAGUGGCUGUGGCUAGACUCCC [G17A G21C G44C], which self-cleavage is on record?
Answer: Its self-cleavage is 0.08.

Question: For GGCAGAGCUCAACACAGCGUGGCAAAGUGGCUGUGUGUAGAUUGCA [G36U C37G C42U C46A], which self-cleavage is on record?
Answer: The self-cleavage was 0.01.

Question: With GGCAGAGAUCGACACAGCGUGGCAAAGAGGCUGAUGCGAGUCUGCC [C8A A11G U28A U34A G35U U38G A41U] as the variant, how does the self-cleavage read?
Answer: Its self-cleavage is 0.01.

Question: Which self-cleavage does the source give for GGCAGUUCGCAACACUGCGUAGCAAAGUGGCUGUGGCUAGACUGCC [A6U G7U U9G A16U G21A] here?
Answer: Its self-cleavage is 0.05.

Question: Which self-cleavage does the source give for GGCACAGCUCAACACAUCGUGGAAAAGAGGUUGUGUAUUGACUGCC [G5C G17U C23A U28A C31U G36U C37A A39U] here?
Answer: The self-cleavage was 0.

Question: Which self-cleavage does the source give for GGCACAGUUCAACACAGCGUGGCAUAGUGGAUGGGGCUAGACUGCC [G5C C8U A25U C31A U34G] here?
Answer: The self-cleavage was 0.38.

Question: For GGGAGAGCUCAACACACCGUGGCAAAGUGGAUGUGGAGAGACUACC [C3G G17C C31A C37A U38G G44A], which self-cleavage is on record?
Answer: The self-cleavage was 0.02.

Question: With GGCAGAGCUCAACACAGCGUGGCAAUGGUGCUGCGGCUAGACUGCC [A26U U28G G29U U34C] as the variant, how does the self-cleavage read?
Answer: The self-cleavage was 0.17.

Question: For GGCAGGGCUCAACACAGCGUGGCAAAUUGGCUGUGGCUAGACUGCU [A6G G27U C46U], which self-cleavage is on record?
Answer: The self-cleavage was 0.2.

Question: For GGGAAAGCUGAACACAGGGUGGCAAAGUGGAUGUGGCUAGACUGGC [C3G G5A C10G C18G C31A C45G], which self-cleavage is on record?
Answer: The self-cleavage was 0.02.

Question: With GGCAGAGCUAAACACAGCGUGGCAAACUGGCUAUUGCUAGACUGCC [C10A G27C G33A G35U] as the variant, how does the self-cleavage read?
Answer: Its self-cleavage is 0.02.

Question: For GGCAGAUCUCAACACAGAGUGGCAAAGUGGCUGGGGCUAGAGUGCC [G7U C18A U34G C42G], which self-cleavage is on record?
Answer: Its self-cleavage is 0.02.

Question: For GGCAGAGCUCAACCCAGCGUGGCAAAGUGGUUUUGGCUAGACUGCC [A14C C31U G33U], which self-cleavage is on record?
Answer: The self-cleavage was 0.01.

Question: With GGCAGAGCUCUACACAGCGGGGCAAAGUGUCGGUGGCUAGACUGCC [A11U U20G G30U U32G] as the variant, how does the self-cleavage read?
Answer: The self-cleavage was 0.32.

Question: For GGCAGAGCUCAACACAGCGUGGAAAAAUUGCUGUGGCUAAACUGCC [C23A G27A G29U G40A], which self-cleavage is on record?
Answer: Its self-cleavage is 0.16.

Question: Which self-cleavage does the source give for GGGAGAGCUCAACAGAGCGUGGCAAAGUGGCUAUGUCUAGACUGCC [C3G C15G G33A G36U] here?
Answer: Its self-cleavage is 0.02.

Question: With GGCAGAGCUCAACCCAGAGUGGCAAAGUGGCUGUGGCAAUACUGCC [A14C C18A U38A G40U] as the variant, how does the self-cleavage read?
Answer: Its self-cleavage is 0.09.
